Laboratory results taken from PMC4336329 (PLoS ONE, 2015).
Out of some 310,000 compounds screened, about 2,200 (0.71%) showed an effect of 50% or more. The effect is printed as a negative number. This is one part of the list.

molecular target: human ether-à-go-go-related gene (hERG) potassium channel (human, UniProt Q12809); assay: primary screen, population patch clamp on CHO cells stably expressing hERG
Sequence (Q12809 whole entry, looked up): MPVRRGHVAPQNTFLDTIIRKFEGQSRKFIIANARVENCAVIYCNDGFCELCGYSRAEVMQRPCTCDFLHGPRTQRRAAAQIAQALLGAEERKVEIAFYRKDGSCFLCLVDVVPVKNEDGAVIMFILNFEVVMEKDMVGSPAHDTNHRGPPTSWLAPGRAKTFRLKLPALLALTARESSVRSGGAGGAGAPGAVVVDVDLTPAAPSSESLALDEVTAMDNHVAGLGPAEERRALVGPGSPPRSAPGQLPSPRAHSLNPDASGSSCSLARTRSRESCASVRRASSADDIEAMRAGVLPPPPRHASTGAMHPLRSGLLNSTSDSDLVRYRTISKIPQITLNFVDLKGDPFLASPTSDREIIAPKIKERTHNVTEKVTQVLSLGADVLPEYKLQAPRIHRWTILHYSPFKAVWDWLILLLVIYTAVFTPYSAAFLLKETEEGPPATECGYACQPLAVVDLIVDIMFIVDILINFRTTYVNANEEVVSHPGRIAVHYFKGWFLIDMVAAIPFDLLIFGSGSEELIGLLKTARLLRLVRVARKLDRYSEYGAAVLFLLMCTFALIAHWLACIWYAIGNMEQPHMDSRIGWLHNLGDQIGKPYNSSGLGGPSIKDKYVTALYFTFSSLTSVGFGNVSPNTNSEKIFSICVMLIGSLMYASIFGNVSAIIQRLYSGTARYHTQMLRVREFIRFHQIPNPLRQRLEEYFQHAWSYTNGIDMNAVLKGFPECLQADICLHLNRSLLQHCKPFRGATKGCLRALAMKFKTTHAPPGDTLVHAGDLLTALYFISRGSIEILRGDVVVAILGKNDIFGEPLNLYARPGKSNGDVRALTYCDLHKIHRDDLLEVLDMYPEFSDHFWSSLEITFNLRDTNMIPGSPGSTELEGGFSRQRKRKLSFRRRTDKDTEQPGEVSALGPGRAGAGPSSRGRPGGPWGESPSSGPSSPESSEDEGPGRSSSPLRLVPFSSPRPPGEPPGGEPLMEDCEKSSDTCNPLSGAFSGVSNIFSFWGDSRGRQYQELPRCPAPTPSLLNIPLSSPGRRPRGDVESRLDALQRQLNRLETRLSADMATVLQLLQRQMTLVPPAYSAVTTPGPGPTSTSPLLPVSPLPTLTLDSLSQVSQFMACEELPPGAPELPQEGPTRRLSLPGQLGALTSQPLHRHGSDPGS

Structure (SMILES) | hERG current change (%, negative = inhibition) at 1uM [%]
COc1cc(CCN2C(=O)c3cccc4cccc(c34)C2=O)c(S(=O)(=O)NCCCO)cc1OC | 11.7
Cc1nn(C)c(C)c1CNC(=O)Nc1ccc2c(c1)OCO2 | 2.79
Cc1cc(SCC(=O)NC2CCCC2)nc2ccccc12 | 4.22
CCC(C(=O)OC)n1cnc2c(nnn2-c2cccc(Cl)c2)c1=O (stereo not drawn) | 5.53
CCC(=O)N1CCc2cc(S(=O)(=O)NCCC(=O)N3CCN(Cc4ccccc4)CC3)ccc21 | -1.95
COC(=O)c1cc(NC(=O)CSc2nnc(CN3CCOCC3)n2C)ccc1Cl | 7.43
O=C(CSc1nc2c(sc3ccccc32)c(=O)n1CCCN1CCCC1)NCc1ccco1 | -70.1
CCCc1nc2ccccc2c(C(=O)OCC(=O)Nc2ccc(S(=O)(=O)N3CCOCC3)cc2)c1CC | 15.9
Cc1ccc(NC(=O)N2CCCC2C(=O)NCc2cccs2)cc1 (stereo not drawn) | 2.72
COCCOc1ccc(C(F)(F)F)cc1NC(=O)c1ccc(C)cc1 | 7.05
CC(=O)c1cccc(N=C2NC(=O)CS2)c1 | 13.8
COC(=O)/C(=N/Nc1ccccc1OC)N1CCCc2ccccc21 | 7.32
CCCCNC(=O)COC(=O)c1ccc(N(C)C)cc1 | 11.6
O=C(CN1C(=O)S/C(=C/c2ccc(N3CCOCC3)cc2)C1=O)N1CCOCC1 | -0.132
Cc1ccc(/C=C2/SC(=O)N(CC(=O)N3CCOCC3)C2=O)s1 | 0.684
CCC(C)N1CNc2c(c(=O)[nH]c(=S)n2-c2cccc(C)c2)C1 (stereo not drawn) | 2.81
Nc1nc(CCl)nc(N(c2ccccc2)c2ccccc2)n1 | 11.4
CC1(c2ccccc2)ON(c2ccccc2C(F)(F)F)C1=O (stereo not drawn) | 7.04
CN1CCC(N2CC3CC(C2)c2cccc(=O)n2C3)CC1 (stereo not drawn) | -5.91

Structure (SMILES) | hERG current change (%, negative = inhibition) at 1uM [%]
Cc1cnc(NC(=O)CSc2nnc(C)s2)s1 | 16.9
COc1ccc(C2NC(=O)NC(O)(C(F)(F)F)C2C(=O)c2ccccc2)cc1OC (stereo not drawn) | -7.26
COc1cc2c(cc1NS(=O)(=O)N1CCCC1)oc1ccccc12 | -2.96
O=C(O)CCC(=O)c1cccc2ccccc12 | 10.3
CN(C)S(=O)(=O)N1CCC(CCCC2CCN(S(=O)(=O)N(C)C)CC2)CC1 | 6
COc1ccc(Cl)cc1NC(=O)COC(=O)CCCN1C(=O)c2ccccc2C1=O | 12.6
Cc1ccc(Cl)c(NC(=O)COC(=O)c2nn(C)c(=O)c3ccccc23)c1Cl | 9.96
O=C(Oc1cccc2c(OC(=O)N3CCCC3)cccc12)N1CCCC1 | -24
O=C(O)Cc1cn(-c2ccccc2)nc1-c1ccccc1 | 8.68
CCCc1cc(=O)oc2cc(C)cc(OC(C)C(=O)NCCN3CCOCC3)c12 (stereo not drawn) | 3.73
O=C(CSc1nnc2c(n1)[nH]c1ccccc12)Nc1cccc(S(=O)(=O)N2CCOCC2)c1 | 8.47
Cc1cc(N2CCCC2)c(C)cc1C=O | -11.6
CC(=O)c1ccc(NC(=O)COC(=O)CCC(=O)c2cccs2)cc1 | 13.7
COc1ccc(S(=O)(=O)N(C)CC(=O)Nc2cccc(C(C)=O)c2)cc1Cl | -1.17
O=C(Cc1ccc(Br)cc1)NC1CCCc2ccccc21 (stereo not drawn) | 11.7
CCc1ccccc1Nc1ccc(C(=O)O)cc1N | 15.9
CCC1=Nc2cc(C(=O)N3CCC4(CC3)OCCO4)ccc2Sc2ccc(Br)cc21 | 12.4
COCCN1CCN(c2c3c(nc4cc(-c5cccc(F)c5)nn24)CCC3)CC1 | -3.12
Cc1cccc(C)c1NC(=O)CN1C(=O)COc2ccccc21 | 12.6

Structure (SMILES) | hERG current change (%, negative = inhibition) at 1uM [%]
O=C(Nc1ccc(N2CCCC2)cc1)c1ccc(Cl)cc1Cl | 13.3
Cc1nc2ccccn2c1C(=O)N/N=C/c1ccccc1 | 5.44
COc1cccc(Cn2c(N)c(C#N)c3nc4ccccc4nc32)c1OC | 12
Cc1cc(Cl)c(C)c(S(=O)(=O)N2CCN(CC(=O)N3CCOCC3)CC2)c1Cl | -14.9
COCCn1c(-c2ccc(OC)cc2)cnc1SCC(=O)Nc1cccc2ccccc12 | -10.1
COc1cccc2cc(C(=O)Oc3ccc(NC(C)=O)cc3)c(=O)oc12 | -0.0939
CC(=O)Nc1ccc(SCC(=O)Nc2cc(C(C)(C)C)nn2-c2ccccc2)cc1 | 8.28
COc1cccc(NC(=O)CCS(=O)(=O)c2ccc3c(c2)oc(=O)n3C)c1 | 20.9
C/C(=N\NC(=O)c1csc(C)c1C)c1ccco1 | 10.2
O=C(c1cc2cccc([N+](=O)[O-])c2oc1=O)N1CCOCC1 | 12.2
COc1ccc(CCn2c(C(C)C)nc3oc4ccccc4c(=O)c3c2=O)cc1 | -25.1
CSc1ccccc1NC(=O)CN(C)Cc1ccc(Br)cc1 | 0.638
Cc1onc(-c2c(F)cccc2Cl)c1C(=O)Nc1sc2c(c1C(N)=O)CCC2 | 1.54
CC(=O)N1CN(C2CCCC2)Cc2c1sc1c2CCCC1 | 10.7
Cc1cccc(N(CC(N)=O)C2SC(=O)NC2=O)c1 (stereo not drawn) | 1.4
CN(C)S(=O)(=O)c1cccc(NC(=O)COc2ccc3ccccc3c2)c1 | 3.28
COC(=O)c1[nH]c2ccc(Cl)cc2c1NC(=O)Oc1ccccc1 | 13.4
CCOC(=O)C1(CCCc2ccccc2)CCN(C(=O)COC)CC1 | 10.5
CSc1ccc(/C=C(\C(=O)O)c2ccc(S(=O)(=O)N3CCCC3)s2)cc1 | 0.93
